Reference: patent US12338279B2, “Selective and potent inhibitory antibodies of myostatin activation” (SCHOLAR ROCK, INC., priority 2022, dated 2025)
“Also recorded” adds a separate entry of the source.

Key:
[1] = test system: male C57/BL6 mice on high fat diet; test: Diet-induced obesity model, semaglutide with Ab109 or Ab141 (Example 5); assay type: in vivo, mouse; conditions: antibody once weekly plus 0.040 mg/kg semaglutide daily, three weeks; FIGS. 13A-B
Experimental: Male C57/BL6 mice were a high-fat diet containing 60% fat then switched to a diet containing 45% fat. […] Body weight and body composition determined by qNMR were recorded at days 7, 14, and 21 after dosing. Gastrocnemius weight, inguinal, and perigonadal fat pad weights were recorded at the end of the study. Liver and terminal blood were collected to measure the levels of glucose and insulin.

[2] = Terminal serum antibody exposure, dexamethasone model; assay type: in vivo, mouse; conditions: day 1 and day 7, dexamethasone-treated mice
Experimental: Antibody exposure and circulating total myostatin levels were measured in the serum collected from the terminal bleeds after treatment with Ab2, Ab130 and Ab109. The results are shown in Table 15 and Table 16 respectively.

[3] = test system: diet-induced obese mice on liraglutide; test: High fat diet (DIO) mice treated with liraglutide and antibody; assay type: in vivo, mouse
Experimental: Caloric restriction causes loss of both fat and lean mass; inhibiting myostatin maintains lean mass during weight loss. […] Changes in body composition were assessed by qNMR readout for fat mass and lean mass; gastrocnemius weight; and inguinal and perigonadal fat pad weight.
Ten-week-old male mice were fed formula D12492 ad lib, a high-calorie diet comprised of 60% fat, and remained on this diet throughout the study. The antibodies were dosed weekly and liraglutide was dosed daily. Body composition and body weight were measured by qNMR prior to dosing, at 2 weeks, and at the end of the dosing period body weight. Gastrocnemius muscles were removed, and their weights were measured after the animals were terminated.

[4] = Pharmacokinetics of Ab109 in non-human primates, subcutaneous or intravenous; assay type: in vivo, Cynomolgus macaques
Experimental: • [1] A preliminary analysis of the pharmacokinetics of subcutaneous or intravenous dosing of Ab109 was determined in non-human primates following a single dose of Ab109 in five groups, each comprising three Cynomolgus macaques. Groups 1-4 were dosed subcutaneously with 0.3, 3, 10 or 30 mg/kg antibody, respectively. […] Samples were taken at day −1 (pre-dose), 1-hour and 8-hour post-dose, and at days 1, 3, 4, 5, 7, 10, 14, 17, 21, 28, 35, 42, 56 and 63 post-dose. An interim pharmacokinetic analysis was performed on samples up to 28 days post-dose.

[5] = test system: dexamethasone-induced muscle atrophy in C57BL6 male mice; test: Dexamethasone-induced muscle atrophy mouse model; assay type: in vivo
Procedure, shortened: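 Male C57BL6 mice (13-14 weeks, n=8) received dexamethasone in drinking water at 2.5 mg/kg for 14 days. Antibodies, PBS or human IgG were dosed on days 1 and 7, at 0.3–10 mg/kg in the dose-ranging study. Lean/muscle mass was measured by qNMR, with gastrocnemius and quadriceps weights and serum myostatin at day 14; ANOVA with Dunnett's test.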

total myostatin in serum = test: Circulating total myostatin in serum (acidification ELISA), dexamethasone model; assay type: in vivo, mouse; conditions: for Circulating total myostatin levels: terminal serum
Source text: Briefly, serum samples were acidified at low pH (e.g., pH ˜2.5) to dissociate the bound antibody from the immune complex and to convert all myostatin in the sample to the active form of growth factor (i.e., mature myostatin). Samples were then neutralized and assayed for the presence of mature myostatin on ELISA plates coated with anti-mature myostatin antibodies as capture reagents.

[6] = in combination with liraglutide

B1: Ab109: anti-pro/latent myostatin antibody; CDRs in Tables 2d-f, variable domains Table 3, chains Table 4 (antibody)
heavy: EVQLVESGGGLVQPGGSLRLSCAASGFTFSSYGMSWVRQAPGKGLELVASFTGSGGTYYPDSVKGRFTISRDNAKNSLYLQMNSLRAEDTAVYYCARDLLIRFLEWSHYYGMDVWGQGTTVTVSSASTKGPSVFPLAPCSRSTSESTAALGCLVKDYFPEPVTVSWNSGALTSGVHTFPAVLQSSGLYSLSSVVTVPSSSLGTKTYTCNVDHKPSNTKVDKRV[human IgG4 Fc with S228P (EU numbers) left out]
light: DIVMTQSPLSLPVTPGEPASISCRSSQSLLHSSGHNFLHWYLQKPGQSPQLLIYEVSNRVSGVPDRFSGSGSGTDFTLKISRVEAEDVGVYYCMQQTQYPPTFGGGTKVEIKRTVAAPSVFIFPPSDEQLKSGTASVVCLLNNFYPREAKVQWKVDNALQSGNSQESVTEQDSKDSTYSLSSTLTLSKADYEKHKVYACEVTHQGLSSPVTKSFNRGEC
Q: What does the source list for B1?
A: fat mass loss (subcutaneous and epididymal adipose tissue weight) [1]: increased fat mass loss as compared to Ab109 or Ab141 alone; Terminal antibody exposure ([2]; dose 0.3 mg/kg): 2.8 µg/mL; Terminal antibody exposure ([2]; dose 1 mg/kg): 104.9 µg/mL; Terminal antibody exposure ([2]; dose 3 mg/kg): 67.3 µg/mL; Terminal antibody exposure ([2]; dose 10 mg/kg): 470.2 µg/mL; lean mass ([3]; antibody with liraglutide, FIG. 11E): lean mass increased; also recorded: greater increases in lean mass compared to Ab2; gastrocnemius muscle mass ([3]; antibody with liraglutide, FIG. 11F): more effective at increasing gastrocnemius mass than Ab2; subcutaneous inguinal fat pad fat mass [3, 6]: reduced the fat mass in the subcutaneous inguinal fat pad; visceral perigonadal fat pad fat mass [3, 6]: reduced the fat mass in the visceral perigonadal fat pad to a greater extent; body weight of mice on high fat diet ([3]; liraglutide daily, antibody weekly for four weeks, FIGS. 11A-D): lost more body weight compared to those treated with Ab2; also recorded: lost slightly less weight than those treated with liraglutide and an IgG control; fat mass ([3]; with liraglutide, FIG. 11G): decreased fat mass to a greater extent than Ab2; concentration of antibody in the serum across dose groups ([4]; single dose 0.3, 3, 10, 30 mg/kg s.c., FIG. 24): dose proportional; apparent bioavailability ([4]; subcutaneous vs intravenous 10 mg/kg, AUC0-28, interim analysis): greater than 85%; body weight of dexamethasone treated mice ([5]; 3 mg/kg/day, FIG. 6A, FIG. 9A): maintained the body weight of the dexamethasone treated mice to a greater extent than Ab2; lean mass by qNMR in dexamethasone treated mice ([5]; 3 mg/kg/day, FIG. 6B, FIG. 9B): preserved the lean mass of the mice to a greater degree than the 10 mg/kg/day Ab2 treatment; gastrocnemius weight in dexamethasone treated mice ([5]; 3 mg/kg/day, FIG. 6C, FIG. 9C): highly effective in preserving gastrocnemius weight; quadriceps weight in dexamethasone treated mice ([5]; FIG. 9D): highly effective in preserving quadriceps weight; body weight loss in dexamethasone treated mice ([5]; doses 0.3-10 mg/kg on day 1 and day 7, dose as in the words, FIG. 7A, FIG. 10A): prevented dexamethasone-induced weight loss; also recorded: the 1 mg/kg dose of Ab109 was equally as effective as the 10 mg/kg dose of Ab 2; also recorded: efficacious in preserving body weight; also recorded: improved efficacy compared to Ab2 at 10, 3, and 1 mg/kg; lean mass by qNMR in dexamethasone treated mice ([5]; doses 0.3-10 mg/kg, dose as in the words, FIG. 7B, FIG. 10B): attenuated the loss of lean mass; also recorded: greater efficacy at both 3 mg/kg and 10 mg/kg compared to either Ab2 or Ab133 at 3 mg/kg and 10 mg/kg; also recorded: At doses of both 10 mg/kg and 3 mg/kg, Ab109 showed greater efficacy in preserving lean mass than Ab2; gastrocnemius muscle weight in dexamethasone treated mice ([5]; doses 0.3-10 mg/kg, dose as in the words, FIG. 7C, FIG. 10C): more efficacy at all four doses as compared to Ab2 at 3 mg/kg; quadriceps muscle weight in dexamethasone treated mice ([5]; doses 0.3-10 mg/kg, dose as in the words, FIG. 7D, FIG. 10D): more efficacy at all four doses as compared to Ab2 at 3 mg/kg; accumulation of total or latent myostatin in serum samples from dosed subjects (total myostatin in serum; as compared to apitegromab): little or no accumulation of total myostatin; total circulating myostatin in serum (total myostatin in serum; dexamethasone-treated mice, FIG. 8, FIG. 15A): lower levels of total circulating myostatin as compared to Ab2 treatment; also recorded: decrease in serum myostatin; Circulating total myostatin levels (total myostatin in serum; dose 0.3 mg/kg, dexamethasone-treated mice): 159.6 ng/mL; Circulating total myostatin levels (total myostatin in serum; dose 1 mg/kg, dexamethasone-treated mice): 45.7 ng/mL; Circulating total myostatin levels (total myostatin in serum; dose 3 mg/kg, dexamethasone-treated mice): 48.4 ng/mL; Circulating total myostatin levels (total myostatin in serum; dose 10 mg/kg, dexamethasone-treated mice): BLOQ
